The campaign covered roughly 310,000 compounds. About 14,000 (4.5%) showed an effect of 50% or more. Effects have a minus sign here. The list shows a part of the results.
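Note: peak tail current of the secondary pulse compared with the same well before compound.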

The target of this assay is human ether-à-go-go-related gene (hERG) potassium channel (human, UniProt Q12809). Nature of the assay: primary screen, population patch clamp on CHO cells stably expressing hERG.
Chain of human ether-à-go-go-related gene (hERG) potassium channel (Q12809 whole entry, looked up): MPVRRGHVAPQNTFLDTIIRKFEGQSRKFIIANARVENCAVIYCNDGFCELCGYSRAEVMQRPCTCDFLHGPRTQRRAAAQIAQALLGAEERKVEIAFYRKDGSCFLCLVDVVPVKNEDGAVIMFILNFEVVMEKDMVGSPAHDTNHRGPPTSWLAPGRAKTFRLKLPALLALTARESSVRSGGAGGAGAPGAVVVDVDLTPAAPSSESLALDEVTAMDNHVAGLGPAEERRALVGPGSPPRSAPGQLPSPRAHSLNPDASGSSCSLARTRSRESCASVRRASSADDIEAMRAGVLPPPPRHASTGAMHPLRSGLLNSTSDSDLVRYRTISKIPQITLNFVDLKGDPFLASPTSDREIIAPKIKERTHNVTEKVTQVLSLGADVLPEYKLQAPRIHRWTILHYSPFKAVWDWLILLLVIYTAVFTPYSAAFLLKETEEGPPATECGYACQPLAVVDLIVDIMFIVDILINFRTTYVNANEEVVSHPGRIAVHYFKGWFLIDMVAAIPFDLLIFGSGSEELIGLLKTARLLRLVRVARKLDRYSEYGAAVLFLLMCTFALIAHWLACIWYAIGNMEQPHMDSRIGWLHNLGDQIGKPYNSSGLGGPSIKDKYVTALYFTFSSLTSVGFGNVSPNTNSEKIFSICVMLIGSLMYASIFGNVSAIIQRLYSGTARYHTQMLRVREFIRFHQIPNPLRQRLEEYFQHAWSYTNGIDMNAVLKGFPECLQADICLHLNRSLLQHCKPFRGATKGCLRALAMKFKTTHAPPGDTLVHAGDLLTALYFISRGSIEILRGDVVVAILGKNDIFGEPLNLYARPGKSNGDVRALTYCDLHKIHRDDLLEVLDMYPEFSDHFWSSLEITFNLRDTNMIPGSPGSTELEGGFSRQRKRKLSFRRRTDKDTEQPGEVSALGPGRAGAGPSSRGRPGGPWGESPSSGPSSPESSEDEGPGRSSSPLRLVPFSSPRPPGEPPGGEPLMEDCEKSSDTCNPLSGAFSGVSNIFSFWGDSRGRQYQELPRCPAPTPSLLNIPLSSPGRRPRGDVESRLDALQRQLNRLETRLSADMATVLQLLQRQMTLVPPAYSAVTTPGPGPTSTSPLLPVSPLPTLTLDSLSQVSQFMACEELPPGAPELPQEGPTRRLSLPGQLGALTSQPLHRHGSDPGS
For the compound `COCCN(Cc1cc2cc(C)ccc2nc1Cl)C(=O)Nc1ccccc1C`, the “hERG current change (%, negative = inhibition) at 10uM” value was -2.19%.

Regarding `CCCN(CC1CC1)C(=O)COC(=O)c1[nH]c(C)c(C(=O)OCC)c1C`, the “hERG current change (%, negative = inhibition) at 10uM” value is -5.5%.

For `OCCc1ccc(-c2ccc(Cl)cc2)o1`, the “hERG current change (%, negative = inhibition) at 10uM” value turned out to be 7.65%.

Turning to `CCOC(=O)c1c(C)c(C)n(Cc2ccc(OC)c(OC)c2)c1C`, the “hERG current change (%, negative = inhibition) at 10uM” value is -10.3%.

For the compound `CN(CCNC(=O)c1ccc(CS(=O)(=O)c2c(Cl)cccc2Cl)o1)CCc1ccccc1`, the “hERG current change (%, negative = inhibition) at 10uM” value is given as -70%.

In the case of `Cc1ccc(Cn2c(=O)n(Cc3ccco3)c(=O)c3ccccc32)cc1`, the “hERG current change (%, negative = inhibition) at 10uM” value is given as 16.3%.

On to `CCC12OC(=N)C(C#N)(C1C)C(C#N)(C#N)C(c1ccccc1)O2` (stereo not shown), for which the “hERG current change (%, negative = inhibition) at 10uM” value turned out to be 2.68%.

Turning to `CCN1CCCC1CNC(=O)c1cc2c(OC)cccc2[nH]1` (stereo not shown), the “hERG current change (%, negative = inhibition) at 10uM” value is listed as -20.8%.

In the case of `COc1ccccc1CNCC(=O)Nc1ccccc1-n1cccc1.Cl`, the “hERG current change (%, negative = inhibition) at 10uM” value is given as -13.6%.

As to `CCOc1ccc(-c2cc(C(=O)O)c3ccccc3n2)cc1`, the “hERG current change (%, negative = inhibition) at 10uM” value is 15.3%.

With `Cc1noc(C)c1COc1cccc(C(=O)Oc2ccc3c(c2)OCO3)c1`, the “hERG current change (%, negative = inhibition) at 10uM” value is -10.1%.

Consider `CCOP1(=O)OCC2OC(n3cnc4c(N)ncnc43)C(O)C2O1` (stereo not shown), for which the “hERG current change (%, negative = inhibition) at 10uM” value is 18.6%.

Regarding `COc1ccc(NC(=O)CCSc2ccc(C)cc2)cc1S(=O)(=O)Nc1ccccc1Cl`, the “hERG current change (%, negative = inhibition) at 10uM” value was 4.61%.

As to `COC(=O)CC/C(O)=C1/C(=N)CC(C)(C)CC1=O`, the “hERG current change (%, negative = inhibition) at 10uM” value was determined as 24.5%.

Regarding `COCC(=O)Nc1ccc2c(c1)OCC(=O)N2Cc1ccccc1F`, the “hERG current change (%, negative = inhibition) at 10uM” value stood at 3.71%.

As for `COC(=O)C1=C(C)OC(N)=C(C#N)C1c1cc2cccc(C)c2nc1Cl` (stereo not shown), the “hERG current change (%, negative = inhibition) at 10uM” value is reported as -5.39%.

On to `O=C(Cc1n[nH]c(=O)c2ccccc12)OCC(=O)c1ccc(F)cc1`, for which the “hERG current change (%, negative = inhibition) at 10uM” value is on record as -6.22%.

Consider `O=C(CCc1nc(-c2ccccc2)no1)NCC1CCCO1` (stereo not shown), for which the “hERG current change (%, negative = inhibition) at 10uM” value was found to be 10.3%.

On to `Clc1nc(Nc2ccccc2)nc(Nc2ccccc2)n1`, for which the “hERG current change (%, negative = inhibition) at 10uM” value is recorded as -6.63%.

With `O=C(O)C(Cc1ccccc1)n1cccc1` (stereo not shown), the “hERG current change (%, negative = inhibition) at 10uM” value came to 17.4%.

Regarding `Cc1ccc(-c2nc3cccnc3s2)cc1NC(=O)c1ccco1`, the “hERG current change (%, negative = inhibition) at 10uM” value was -7.62%.

As to `Cc1cc(/C=C(\C#N)c2nc3ccccc3[nH]2)c(C)n1C`, the “hERG current change (%, negative = inhibition) at 10uM” value is on record as -6.77%.

For `Fc1ccc2nc(Nc3nc4cc5c(cc4s3)OCCO5)sc2c1`, the “hERG current change (%, negative = inhibition) at 10uM” value is reported as 13.6%.

As to `CS(=O)(=O)NCc1ccc(C(=O)O)cc1`, the “hERG current change (%, negative = inhibition) at 10uM” value is 22.1%.

For the compound `COC(=O)N/N=C1\CCCc2c(C)cc(C)cc21`, the “hERG current change (%, negative = inhibition) at 10uM” value was found to be 10.1%.

With `O=C([O-])CSc1cccc2cccnc12.[Na+]`, the “hERG current change (%, negative = inhibition) at 10uM” value came to 4.74%.

For `CCCc1nc2ccccc2c(=O)n1/N=C/c1c(C)[nH]n(-c2ccc(C)cc2)c1=O`, the “hERG current change (%, negative = inhibition) at 10uM” value is on record as -3.66%.

Take `COCCOC1CCN(C(=O)C2CCC(=O)N(Cc3cccc(F)c3)C2)CC1` (stereo not shown): the “hERG current change (%, negative = inhibition) at 10uM” value was determined as 20.1%.

As for `O=C(Nc1nc(=S)ss1)c1ccc(Cl)cc1Cl`, the “hERG current change (%, negative = inhibition) at 10uM” value is 11.3%.

On to `Cc1ccc(C)c(Cn2nnc3c(=O)[nH]c(C4CCCN(C(=O)c5cccs5)C4)nc32)c1` (stereo not shown), for which the “hERG current change (%, negative = inhibition) at 10uM” value was 0.859%.

For the compound `Cc1cccc(N2CCCn3c2nc2c3c(=O)[nH]c(=O)n2C)c1`, the “hERG current change (%, negative = inhibition) at 10uM” value is given as -12.9%.

`C/C(=N\NC(=O)CNC(=O)C(c1ccccc1)c1ccccc1)c1ccc(C(C)(C)C)cc1`: the “hERG current change (%, negative = inhibition) at 10uM” value stood at 14.8%.

With `CCNC(=O)NC(=O)C(C)Sc1nc2ccccc2c(=O)n1-c1cccnc1` (stereo not shown), the “hERG current change (%, negative = inhibition) at 10uM” value amounted to 0.423%.

With `CCOC(=O)c1ccc(S(=O)(=O)N2CCN(C3CCCC3)CC2)cc1`, the “hERG current change (%, negative = inhibition) at 10uM” value is recorded as 2.59%.

For the compound `O=S(=O)(c1ccccc1)N1CCN(C(=S)Nc2ccccc2Cl)CC1`, the “hERG current change (%, negative = inhibition) at 10uM” value is -1.04%.

On to `O=S(=O)(NCCOc1cccc2cccnc12)c1ccc(F)cc1`, for which the “hERG current change (%, negative = inhibition) at 10uM” value is -14.6%.

Take `Cl.c1ccc(CSc2nnc([C@@H]3CCCN3)o2)cc1`: the “hERG current change (%, negative = inhibition) at 10uM” value was -2.43%.

For `FC(F)(F)c1ccc(NC(=S)NC2CCCCC2)cc1`, the “hERG current change (%, negative = inhibition) at 10uM” value turned out to be 22.7%.

Take `O=C(COC(=O)c1ccccc1S(=O)(=O)N1CCCCC1)NCC(F)(F)F`: the “hERG current change (%, negative = inhibition) at 10uM” value was -21.4%.

Take `CCCC[C@@H]1CNC(=O)C(=O)N1CC(C)(C)C`: the “hERG current change (%, negative = inhibition) at 10uM” value was -0.819%.

Take `COC(=O)CC1C(=O)NCCN1C(=O)Nc1ccc(Cl)cc1` (stereo not shown): the “hERG current change (%, negative = inhibition) at 10uM” value was 14.5%.

For the compound `NNC(=O)Cn1c(SCc2ccccc2)nc2ccccc21`, the “hERG current change (%, negative = inhibition) at 10uM” value is 3%.

In the case of `Cc1ccc(S(=O)(=O)N(CCC#N)C2CCCCC2)c2nsnc12`, the “hERG current change (%, negative = inhibition) at 10uM” value was -21.9%.

Regarding `O=S(=O)(/N=C(/Nc1cccc2ccccc12)c1ccc(F)cc1)c1ccccc1`, the “hERG current change (%, negative = inhibition) at 10uM” value is -42.8%.

Turning to `Cc1cc(C)cc(NC(=O)CCN2CCOCC2)c1`, the “hERG current change (%, negative = inhibition) at 10uM” value was determined as 3.56%.

Consider `CCc1cccc(OCCCCNCCO)c1.O=C(O)C(=O)O`, for which the “hERG current change (%, negative = inhibition) at 10uM” value came out at 10.8%.

As for `S=c1[nH]ncn1/N=C/c1cccc(Oc2ccccc2)c1`, the “hERG current change (%, negative = inhibition) at 10uM” value amounted to 6.75%.

For `COc1ccc2[nH]c3c(=O)n(CCCCC(=O)NCCN4CCCC4)c(=S)[nH]c3c2c1`, the “hERG current change (%, negative = inhibition) at 10uM” value stood at 12.8%.

As for `Cc1cccc(Nc2nc(-c3ccc(O)c(O)c3)cs2)n1`, the “hERG current change (%, negative = inhibition) at 10uM” value turned out to be 14.7%.

With `Cc1ccc(SCC(=O)N2CCN(c3ccccn3)CC2)cc1`, the “hERG current change (%, negative = inhibition) at 10uM” value is -10.2%.

Take `CN1CCN(C(=O)Nc2ccc3c(c2)N(C)C(=O)c2ccccc2S3)CC1`: the “hERG current change (%, negative = inhibition) at 10uM” value is recorded as 8.57%.

With `Cc1c(C(=O)OCC2CCCO2)[nH]c2c1C(=O)CC(c1ccc(N(C)C)cc1)C2` (stereo not shown), the “hERG current change (%, negative = inhibition) at 10uM” value is -6.95%.

Take `O=C(CSc1nc(O)cc(=O)[nH]1)N1c2ccccc2Sc2ccccc21`: the “hERG current change (%, negative = inhibition) at 10uM” value was 8.9%.

In the case of `COc1cc(NC(=O)CCc2nnc3ccc(N4CCN(C)CC4)nn23)cc(OC)c1`, the “hERG current change (%, negative = inhibition) at 10uM” value is 25.2%.

In the case of `O=C(Nc1nnc(C2=COCCO2)o1)c1ccc([N+](=O)[O-])cc1`, the “hERG current change (%, negative = inhibition) at 10uM” value amounted to 14%.

Take `O=C(CSc1ccc(Cl)cc1)N1CCCC1`: the “hERG current change (%, negative = inhibition) at 10uM” value is 16.6%.

Consider `O=S(=O)(Nc1ccc(-c2csc(-c3ccccc3)n2)cc1)c1ccccc1`, for which the “hERG current change (%, negative = inhibition) at 10uM” value is -10.7%.

As to `CSCC[C@H](NC(=O)Cc1c(C)c2c(cc(C)c3c(C)c(C)oc32)oc1=O)C(=O)O`, the “hERG current change (%, negative = inhibition) at 10uM” value was determined as 0.0578%.

Source of the values: article PMC4336329 (PLoS ONE, 2015).
